Measurements from PubChem BioAssay AID588591 (National Center for Advancing Translational Sciences (NCATS), 2011).
The whole screen tested about 390,000 compounds, of which about 4,700 (1.2%) were called active. The shares of active, inactive and inconclusive entries below differ from those in the screen. Calls come from the whole dose curve; as a rule, active = well fitted inhibition curve with a large enough effect; inconclusive = small, poorly fitted or top-dose-only effect, or another doubt; inactive = no such curve, though single readings can be large or run the other way. Potencies of inconclusive entries are doubtful fits and often do not repeat.

The compounds below were run against DNA polymerase eta (Homo sapiens) (UniProt Q9Y253) (assay: qHTS for Inhibitors of Polymerase Eta). Conditions: recombinant Pol eta, fluorescent DNA replication assay; series mostly up to 114 µM; activity change, negative = inhibition: at the top concentration.
Method in brief: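 Fluorescent replication assay: 50 nM final substrate added after a 15 min room-temperature compound preincubation with 10 nM enzyme. Signal taken at 0 min and again at 10 min.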
% is set by controls: 0 for no effect and ±100 for the full control effect; potency is the fitted concentration of half-maximal effect; tags give direction and shape of the fitted curve.

UniProt Q9Y253, sequence (Q9Y253 whole entry, looked up): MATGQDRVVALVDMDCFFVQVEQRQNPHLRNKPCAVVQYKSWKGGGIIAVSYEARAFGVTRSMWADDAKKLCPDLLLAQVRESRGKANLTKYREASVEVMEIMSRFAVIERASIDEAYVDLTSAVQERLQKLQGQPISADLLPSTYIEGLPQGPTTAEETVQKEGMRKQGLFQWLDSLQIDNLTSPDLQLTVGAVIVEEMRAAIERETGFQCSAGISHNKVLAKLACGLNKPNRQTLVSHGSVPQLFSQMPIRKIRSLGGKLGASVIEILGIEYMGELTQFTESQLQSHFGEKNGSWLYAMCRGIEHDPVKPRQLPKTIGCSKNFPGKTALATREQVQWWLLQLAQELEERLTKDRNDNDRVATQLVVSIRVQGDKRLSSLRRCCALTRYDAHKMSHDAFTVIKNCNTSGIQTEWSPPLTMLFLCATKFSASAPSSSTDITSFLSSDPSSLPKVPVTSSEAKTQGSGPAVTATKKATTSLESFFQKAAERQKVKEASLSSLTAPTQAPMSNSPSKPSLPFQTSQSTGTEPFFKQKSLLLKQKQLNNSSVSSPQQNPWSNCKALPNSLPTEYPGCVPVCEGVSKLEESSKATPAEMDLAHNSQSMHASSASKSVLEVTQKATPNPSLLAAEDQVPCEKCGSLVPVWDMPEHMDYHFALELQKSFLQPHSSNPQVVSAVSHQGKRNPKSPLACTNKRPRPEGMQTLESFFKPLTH

Compound | Potency | activity change, negative = inhibition
O=C(O)c1ccc(COc2ccccc2C=C2C(=O)c3ccccc3C2=O)cc1 | inconclusive: 56.2 µM [inhibitor, partial curve, poor fit] | 
C=CCOc1c(Br)cc(/C=C2\SC(=Nc3ccccc3)NC2=O)cc1OC |  | inactive: -15.9%
COc1ccc(-n2c(C)cc(/C=C3\C(=O)NN(c4ccccc4)C3=O)c2C)cc1 |  | inactive: -3.7%
CCCC(=O)NNC(=O)CC(=O)Nc1ccccc1C(=O)O | inconclusive: 79.4 µM [inhibitor, partial curve, poor fit] | 
CC1CCC(NC(=O)c2ccc(CS(=O)(=O)c3cccc(C(F)(F)F)c3)o2)CC1 (stereo unspecified) |  | inactive: -16.4%
Cn1c(N)c(C(=O)CSc2n[nH]c(-c3ccccc3)n2)c(=O)n(C)c1=O | inconclusive: 35.5 µM [inhibitor, single point] | 
COc1ccc(CCN2C(=O)C3C4CC(C5C(C(N)=O)=NOC45)C3C2=O)cc1OC (stereo unspecified) | inconclusive: 31.6 µM [inhibitor, single point] | 
COc1cc2c[n+](C)c3c4ccccc4ccc3c2cc1OC | inconclusive: 6.31 µM [inhibitor, full curve, poor fit] | 
Cc1ccccc1-n1nc2c(c1NC(=O)c1cc3ccccc3o1)CS(=O)(=O)C2 | inconclusive: 44.7 µM [inhibitor, partial curve] | 
c1ccc(-c2nc3ccccc3c3nc4ccccc4n23)cc1 | inconclusive: 31.6 µM [inhibitor, full curve] | 
Cc1ccc(CNC(=O)c2c(C)oc3nc(C)nc(N4CCOCC4)c23)cc1 |  | inactive: -9.11%
O=C1N/C(=C/c2ccco2)C(=O)N1Cc1ccccc1F | inconclusive: 89.1 µM [inhibitor, partial curve, poor fit] | 
COc1cccc(NS(=O)(=O)c2ccc3[nH]cc(C(=O)NCCC(C)C)c(=O)c3c2)c1 | inconclusive: 31.6 µM [inhibitor, partial curve, poor fit] | 
COc1ccc(/C=N/NC(=O)c2ccncc2)cc1CN1CCCc2ccccc21 | inconclusive: 14.1 µM [inhibitor, full curve] | 
Cc1ccccc1N=Cc1c(O)n(-c2nccs2)c(=O)c2ccccc12 | inconclusive: 15.8 µM [inhibitor, partial curve, poor fit] | 
C#CCOCCOCCOCCNc1nc(N2CCN(C(=O)CCCCCCCCCCNC(=O)Cn3cc(C[C@@H](C)O)nn3)CC2)nc(N2CCN(C(=O)CCCCCCCCCCNC(=O)[C@H](CCCCN)n3cc(C[C@@H](C)CC)nn3)CC2)n1 | inconclusive: 89.1 µM [inhibitor, partial curve, poor fit] | 
O=C(N/N=C/c1ccoc1)c1cc(Br)ccc1O | inconclusive: 20 µM [inhibitor, full curve, poor fit] | 
COc1ccc(/C=N/Nc2cc(C)nc3c(C)cccc23)cc1 | inconclusive: 79.4 µM [inhibitor, partial curve] | 
O=C(OC1CCOC1=O)c1ccccc1C(=O)c1ccc(Cl)c([N+](=O)[O-])c1 (stereo unspecified) | active: 50.1 µM | 
C=CC(=O)N1c2ccccc2Sc2ccc(NC(=O)OCC)cc21 | inconclusive: 25.1 µM [inhibitor, single point] | 
Oc1ccc(C2Nc3cccc4cccc(c34)N2)c(O)c1 | inconclusive: 14.1 µM [inhibitor, full curve, poor fit] | 

Compound | Potency | activity change, negative = inhibition
Cn1c(N)c(C(=O)COC(=O)Cc2cccs2)c(=O)n(C)c1=O |  | inactive: 1.69%
CC(O/N=C/c1ccc(OC(F)F)cc1)C(=O)Nc1cccc(S(=O)(=O)N2CCOCC2)c1 (stereo unspecified) | inconclusive: 0.0398 µM [inhibitor, full curve, poor fit] | 
O=C(OCC(=O)N1CCN(C(=O)c2ccco2)CC1)c1ccccc1NCCO | inconclusive: 39.8 µM [inhibitor, partial curve, poor fit] | 
Cn1cccc1C(=O)NNC(=O)COc1ccccc1Cl | inconclusive: 100 µM [inhibitor, single point] | 
COc1ccc(-c2nnc3ccc(SCC(=O)Nc4nc5ccc(C)cc5s4)nn23)cc1OC | inconclusive: 11.2 µM [inhibitor, partial curve, poor fit] | 
O=c1cc(CN2CCN(c3ccccc3O)CC2)nc2sccn12 | active: 20 µM | 
COc1cc2nc(NCCCN3CCN(C)CC3)n3nc(-c4ccccc4)nc3c2cc1OC | inconclusive: 12.6 µM [inhibitor, full curve] | 
COc1ccccc1OCC(=O)Nc1cc(NC(=O)COc2ccccc2OC)cc(C(=O)O)c1 |  | inactive: -6.79%
CCn1c(SCC(=O)c2ccc(O)c(O)c2)nnc1-c1ccccc1OC | active: 1.41 µM | 
CC(=O)N1CCN(C(=O)CCc2nc3sc4c(c3c(=O)[nH]2)CCCC4)CC1 |  | inactive: -15.7%
Cc1ccc(S(=O)(=O)N2CCCCC2)cc1NC(=O)CSc1ccc2c(c1)OCCO2 | inconclusive: 17.8 µM [inhibitor, partial curve, poor fit] | 
O=S(=O)(Nc1nc(-c2ccco2)c(-c2ccco2)s1)c1ccc(F)cc1F | active: 28.2 µM | 
COc1ccc2c(C)nc(Nc3nc(C)c(C)c(=O)[nH]3)nc2c1 | inconclusive: 56.2 µM [inhibitor, partial curve, poor fit] | 
COc1ccc(/C=N/Nc2ncc(Br)cn2)c(OC)c1 | active: 28.2 µM | 
COc1cccc(NC(=O)COC(=O)c2cc(S(=O)(=O)N3CCOCC3)ccc2C)c1 |  | inactive: -17.3%
O=C(NC1CCCCC1)C1CC(=O)N(c2cccc([N+](=O)[O-])c2)C1 (stereo unspecified) |  | inactive: -16.6%
Cc1cc(NC(=O)c2ccco2)ccc1NC(=O)c1ccco1 | inconclusive: 79.4 µM [inhibitor, partial curve, poor fit] | 
CCCN(Cc1ccccc1)C(=S)Nc1cccc(C(F)(F)F)c1 | inconclusive: 79.4 µM [inhibitor, partial curve, poor fit] | 
O=C(O)CCCC(=O)Nc1cc([N+](=O)[O-])ccc1O |  | inactive: -5.54%
COc1cccc(N2CC(C(=O)Nc3nnc(SCC(=O)NC4CCCC4)s3)CC2=O)c1 (stereo unspecified) | inconclusive: 8.91 µM [inhibitor, partial curve, poor fit] | 
